In all, about 48,000 compounds went through this assay and about 550 (1.1%) were called active. Another 4% or so got no clear call; they are omitted. Rule as the data show it: active = potency below about 15 µM; inconclusive = mostly about 16 µM to 33 µM; inactive = weaker than that. The list shows a part of the results.
These compounds were tested against Lysosomal acid glucosylceramidase (Homo sapiens) (UniProt P04062) (assay: Glucocerebrosidase). Details: purified enzyme, resorufin glucoside fluorescence (screen aimed at inhibitors), 20 min.
Sequence of UniProt P04062 (P04062 whole entry, looked up): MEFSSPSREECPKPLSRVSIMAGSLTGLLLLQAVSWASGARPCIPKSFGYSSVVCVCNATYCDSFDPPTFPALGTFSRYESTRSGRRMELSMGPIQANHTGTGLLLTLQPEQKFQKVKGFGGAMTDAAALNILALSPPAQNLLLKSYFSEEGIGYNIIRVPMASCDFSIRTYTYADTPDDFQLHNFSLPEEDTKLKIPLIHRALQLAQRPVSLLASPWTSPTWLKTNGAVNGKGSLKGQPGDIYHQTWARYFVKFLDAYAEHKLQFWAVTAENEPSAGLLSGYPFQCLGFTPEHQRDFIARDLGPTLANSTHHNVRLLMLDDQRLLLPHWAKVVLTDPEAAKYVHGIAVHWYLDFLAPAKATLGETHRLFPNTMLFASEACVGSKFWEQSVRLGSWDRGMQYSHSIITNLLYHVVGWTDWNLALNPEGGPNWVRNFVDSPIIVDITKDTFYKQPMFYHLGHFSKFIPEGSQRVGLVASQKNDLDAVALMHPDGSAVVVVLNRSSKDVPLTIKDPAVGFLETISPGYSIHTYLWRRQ
In short: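 Wild-type enzyme at 0.2 nM final in 50mM citric acid/KH2PO4, 10mM sodium taurocholate, 0.01% tween-20, pH 5.9, with resorufin beta-D-glucopyranoside at 30 uM final. Compounds titrated, 20 min at RT, red fluorescence read; AC50 from titration.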
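Also: the screen sought inhibitors.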
Potency is read from the fitted curve at half-maximal effect.

Potency, inactive:
CCOc1ccc(CN2CCN(c3cc(C)nc4c5c(C)cc(C)nc5nn34)CC2)cc1 > 76.9 µM
COc1ccc(-c2ccc(-c3nnc(Cc4ccc(OC)c(OC)c4)o3)cc2)cc1 > 76.9 µM
Cn1c(CCN2CCCCC2)nc2cc(NC(=O)C3CCCCC3)ccc21
CCOC(=O)C(CC)n1cnc2c(cnn2-c2ccc(Cl)cc2)c1=O (stereo not given) > 76.9 µM
CCCCn1c(=NC(=O)c2ccc3c(c2)OCO3)c(C#N)cc2c(=O)n3cccc(C)c3nc21 > 76.9 µM
CCN(CC)S(=O)(=O)c1ccc2[nH]cc(C(=O)NCCc3ccc(OC)c(OC)c3)c(=O)c2c1 > 76.9 µM
CCOc1ccc2[nH]c(=O)c(C(c3nnnn3Cc3ccco3)N3CCCC(C)C3)cc2c1 (stereo not given)
CCn1c(SCC(=O)O)nnc1C1CCCCC1 > 76.9 µM
O=C(Cn1nnc(-c2ccccc2)n1)NCc1cccs1 > 76.9 µM
O=C(CCn1c(=S)[nH]c2ccccc2c1=O)N1CCN(c2ccccn2)CC1 > 76.9 µM
Cn1ccnc1C(O)c1ccco1 (stereo not given) > 76.9 µM
CC(C)(C)n1nc2c(c1NC(=O)c1cccs1)CS(=O)C2 (stereo not given) > 76.9 µM
COc1ccc(OC)c(NC(=O)CC(Cc2ccccc2OC)C(=O)O)c1 (stereo not given) > 76.9 µM
COc1ccccc1-c1nnc(NC(=O)c2ccc(S(=O)(=O)N(C)C)cc2)o1 > 76.9 µM
CCOc1ccc(C2=CS/C(=C(\C#N)c3nnc4n3CCCCC4)N2CC)cc1 > 76.9 µM
CCn1ccc(=N)cc1 > 76.9 µM
Nc1cc(OC(=O)c2cccs2)nn1S(=O)(=O)c1ccccc1 > 76.9 µM
Cc1cc(=O)oc2cc(NC(=O)C3COc4ccccc4O3)ccc12 (stereo not given) > 76.9 µM
Cc1nnc(SCCn2c(N3CC(C)CC(C)C3)nc3c2c(=O)n(C)c(=O)n3C)s1 (stereo not given) > 76.9 µM
CCN(CC)C(=O)CSc1nnc([C@@H](NC(=O)OC(C)(C)C)C(C)C)o1 > 76.9 µM
CC(C)(C)C(=O)COC(=O)c1ccc(O)cc1 > 76.9 µM
COC(=O)c1cn(C)c2ccc(S(=O)(=O)N3CCCCC3)cc2c1=O > 76.9 µM
COCCNC(=O)c1ccc(C(=O)NCCOC)s1 > 76.9 µM
CCn1c(NCc2c[nH]c3ccccc23)nc2ccccc21 > 76.9 µM
CCOC(=O)C1CCN(Cc2nc3ccccc3c(=O)n2-c2ccc(OCC)cc2)CC1 > 76.9 µM

Source: PubChem BioAssay AID360 (National Center for Advancing Translational Sciences (NCATS), 2006)
